Results published in PubChem BioAssay AID624417 (National Center for Advancing Translational Sciences (NCATS), 2012).
The campaign covered roughly 410,000 compounds. About 6,400 (1.6%) were called active. This list was built around the results that the source calls inconclusive (neither active nor inactive); the mix of calls is not that of the screen. The call rests on the fitted dose curve; in most records, active means well fitted inhibition curve with a large enough effect; inconclusive means small, poorly fitted or top-dose-only effect; inactive means no such curve, though single readings can be large or run the other way. Potencies of inconclusive entries are left out as doubtful fits.

Each compound was assayed against Glucagon-like peptide 1 receptor (Homo sapiens) (UniProt P43220) (assay: qHTS of GLP-1 Receptor Inverse Agonists (Inhibition Mode)). Conditions: HEK293 GLP-1R CRE-luciferase, luminescence, 24 h, GLP-1R form is constitutively active; activity change, negative = inhibition: at 38.3 µM (top of the series) unless noted.
Sequence of UniProt P43220 (P43220 whole entry, looked up): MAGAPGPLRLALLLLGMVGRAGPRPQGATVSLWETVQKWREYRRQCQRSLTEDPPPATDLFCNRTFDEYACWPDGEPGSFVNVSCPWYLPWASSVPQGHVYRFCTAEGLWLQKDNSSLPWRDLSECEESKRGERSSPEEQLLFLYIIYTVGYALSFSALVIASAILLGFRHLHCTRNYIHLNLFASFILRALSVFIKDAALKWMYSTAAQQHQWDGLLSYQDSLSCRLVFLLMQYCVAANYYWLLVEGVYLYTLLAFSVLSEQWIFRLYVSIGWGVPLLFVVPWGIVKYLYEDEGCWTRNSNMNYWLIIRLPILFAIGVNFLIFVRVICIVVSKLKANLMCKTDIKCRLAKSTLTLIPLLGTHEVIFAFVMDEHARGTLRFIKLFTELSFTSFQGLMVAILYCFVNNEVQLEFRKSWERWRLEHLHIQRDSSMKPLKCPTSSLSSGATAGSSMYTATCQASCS
In short: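 Constitutively active GLP-1R drives a cAMP-responsive luciferase in stably transfected HEK293 cells; test compounds are added after overnight (12 h) attachment and left 24 hr, and signal loss in luminescence marks inhibition.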
Further: nearly all actives have a fitted effect of over 55% in size.
On the % scale 0 is the no-effect control and ±100 the full control effect; potency means the concentration at half of the fitted maximal effect; tags describe the fitted curve by direction and shape.

SMILES	activity change, negative = inhibition	Potency
O=C(Nc1ccc2nc(SCC(=O)N3CCOCC3)sc2c1)c1cccc(Cl)c1	inactive: -23.7%	–
COc1ccc(NC(=O)c2cc3c(Cl)nc4ccccc4c3s2)c(OC)c1	–	inconclusive [inhibitor, single point]
CC1(Cc2ccc3c(c2)OCO3)C(=O)Nc2ccc(-c3cccc(C(F)(F)F)c3)cc21 (centres undefined)	–	inconclusive [inhibitor, single point]
CC(C)C[C@@H](CN1CCC[C@@H]1CN1C(=S)NC[C@@H]1Cc1ccccc1)N1C[C@H](Cc2ccc(O)cc2)N(CCc2ccccc2)C1=S	–	inconclusive [inhibitor, single point]
Cc1ccc(C)c(N2CCN(C(=O)Cc3c(C(=O)O)[nH]c4ccc(Cl)cc34)CC2)c1	–	inconclusive [inhibitor, single point]
O=C(CCCN1C(=O)C(c2ccccc2)Oc2cccnc21)Nc1cccc(F)c1 (centres undefined)	–	inconclusive [inhibitor, single point]
CCCC/C=C/C(NC(=O)CCc1ccccc1)c1ccccc1 (centres undefined)	–	inconclusive [inhibitor, partial curve, poor fit]
CCC1(C)Cc2c(sc3nc(SC)[nH]c(=S)c23)CO1 (centres undefined)	inactive: 26.9%	–
Cc1ccccc1NC(=S)NNc1ncc(C(F)(F)F)cc1Cl	inactive: -20.4%	–
O=C1CSC(=S)N1/N=C/c1cccc(C(F)(F)F)c1	inactive: 13.3%	–
CCn1cc(C(=O)N2CCN(c3ccc([N+](=O)[O-])cc3)CC2)c(=O)c2ccc(C)nc21	inactive: -2.22%	–
Cc1ccc(S(=O)(=O)N2[C@@H](c3ccccc3)C(C(=O)O)=CC[C@H]2c2ccc(C(C)C)cc2)cc1	–	inconclusive [inhibitor, partial curve, poor fit]
Cc1cc(OCCn2cc(C(=O)c3cccs3)c3ccccc32)ccc1Cl	–	inconclusive [inhibitor, single point]
O=C(c1cc(COc2cccc(C(F)(F)F)c2)on1)N1CCC(Oc2cccnc2)CC1	–	inconclusive [inhibitor, single point]
CN1CCN(S(=O)(=O)c2ccc(N3CCN(c4ccc(O)cc4)CC3)c([N+](=O)[O-])c2)CC1	–	inconclusive [inhibitor, partial curve, poor fit]
COc1ccc(Br)cc1CN1CCSCC1	–	inconclusive [inhibitor, single point]
CN(Cc1cn[nH]c1-c1ccc(-c2ccccc2)cc1)CC1CCOCC1	–	inconclusive [inhibitor, partial curve, poor fit]
Cc1ccc(S(=O)(=O)Nc2ccc3ccccc3c2[N+](=O)[O-])cc1	–	inconclusive [inhibitor, partial curve, poor fit]
CC(C)N(C(C)C)S(=O)(=O)c1ccc(NN)nc1	–	inconclusive [inhibitor, single point]
Cc1cccc(C(=O)NNC(=O)c2c(O)c3ccccc3n(C)c2=O)c1	inactive: 11.7%	–

SMILES	activity change, negative = inhibition	Potency
COc1cccc(CNC(=O)C(=O)NCC(c2ccco2)S(=O)(=O)c2cccs2)c1 (centres undefined)	inactive: -3.27%	–
CS(=O)(=O)Nc1cccc(C2=NN(C(=O)c3cccc(F)c3)C(c3cccs3)C2)c1 (centres undefined)	–	inconclusive [inhibitor, partial curve, poor fit]
CCOc1ccccc1CNC(=O)C1CCN(C(=O)N2CC(CC)Oc3ccc(C)cc32)CC1 (centres undefined)	–	inconclusive [inhibitor, single point]
CN(Cc1ccc(Cl)c(Cl)c1)C(C(=O)NCc1ccccc1)c1ccco1 (centres undefined)	–	inconclusive [inhibitor, partial curve, poor fit]
CC(C)(C)C(=O)Cn1c(=O)n(-c2ccc(Cl)cc2)c(=O)c2c3c(sc21)CCCC3	inactive: 14.3%	–
CC(C)CCN1CCN(Cc2cnc(-c3ccccc3)s2)CC1CCO (centres undefined)	–	inconclusive [inhibitor, partial curve, poor fit]
CCN(CC)S(=O)(=O)c1ccc(N2CCOCC2)c(NC(=O)COc2ccc(OC)cc2)c1	–	inconclusive [inhibitor, single point]
CC1CCC/C(=C\Nc2ccc(C(=O)O)cc2)C1=O (centres undefined)	–	inconclusive [inhibitor, partial curve, poor fit]
Cc1ccc(CNS(=O)(=O)NCc2ccccc2)cc1	inactive: 7.81%	–
CC1(C)c2ccccc2-c2nc3ccccc3cc2C1N1CCOCC1 (centres undefined)	–	inconclusive [inhibitor, partial curve, poor fit]
COc1cc2c(oc(=O)c3cc(C)cc(OC)c32)c2c(C3OC(C)C(O)C(C)(O)C3O)ccc(O)c12 (centres undefined)	–	inconclusive [inhibitor, partial curve, poor fit]
CCOc1ccc(N(CC(=O)N2CCN(c3ccccc3OC)CC2)S(=O)(=O)c2ccc(C)cc2)cc1	–	inconclusive [inhibitor, single point]
OC(COc1ccccc1)CN1CCN(C(c2ccccc2)c2ccccc2)CC1 (centres undefined)	–	inconclusive [inhibitor, partial curve, poor fit]
O=C(NCCc1ccccc1)c1sc2ncccc2c1-n1cccc1	–	inconclusive [inhibitor, single point]
COc1cccc(N2CCN(CC(=O)NC(=O)NC3CCCCC3)CC2)c1	–	inconclusive [inhibitor, single point]
CCOC(=O)[C@@H](CCc1ccccc1)N[C@H](C)C(=O)N1[C@H](C(=O)O)C[C@@H]2CCC[C@@H]21	inactive: 0.457%	–
Cc1nn(Cc2ccccc2Cl)c(C)c1NC(=O)c1cc(C(C)C)on1	–	inconclusive [inhibitor, partial curve, poor fit]
CCCCCC(=O)N1C[C@@H](O)[C@H](n2cc(-c3ccc(F)cc3)nn2)C[C@@H]1c1ccccc1	–	inconclusive [inhibitor, partial curve, poor fit]
COc1cc(OC)cc(-n2nnnc2SCC(=O)Nc2nc3c(s2)CCCC3)c1	–	inconclusive [inhibitor, full curve, poor fit]
